Experimental data as given in the supplement of paper PMC12578646, “Prodrug florfenicol amine is activated by intrinsic resistance to target Mycobacterium abscessus” (Nature Microbiology, 2025).
M. abscessus ATCC 19977 and its deletion, point and complemented mutants after 5 days of drug at 37 °C plus 24 h of resazurin. Growth in % of untreated wells at the dose given (lower = more inhibition); checkerboards give % inhibition (higher = more inhibition); IC50 from the fitted curve (lower = more potent). No active / inactive call. IC50 values come from the same 384-well curves. Growth is not capped and can exceed 100%. The direction of the checkerboard scale is read from the raw signals. Capreomycin is a mixture.

Experiments:
Assay in all cases: growth relative to untreated wells; higher = more growth (less inhibition)
[1] = test system: Mycobacterium abscessus ATCC 19977 WhiB7 T70fs
Protocol: (§1)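 384-well two-fold dose series, two replicates; 5 days at 37 °C, then 24 h with resazurin; fluorescence scaled to growth and killed controls.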

[2] = test system: Mycobacterium abscessus ATCC 19977
Protocol: as §1

[3] = test system: Mycobacterium abscessus ATCC 19977 Δeis2
Protocol: as §1

[4] = test system: Mycobacterium abscessus ATCC 19977 Eis2 Y227D
Protocol: as §1

[5] = test system: Mycobacterium abscessus ATCC 19977 ΔwhiB7
Protocol: as §1

[6] = test system: Mycobacterium abscessus ATCC 19977 WhiB7 L37P
Protocol: as §1

[7] = test system: Mycobacterium abscessus ATCC 19977 Eis2 T258R
Protocol: as §1

[8] = test system: Mycobacterium abscessus ATCC 19977 Eis2 Y284*
Protocol: as §1

[9] = test system: Mycobacterium abscessus ATCC 19977 Eis2 E120fs
Protocol: as §1

[10] = test system: Mycobacterium abscessus ATCC 19977 WhiB7 F24fs
Protocol: as §1

[11] = test system: Mycobacterium abscessus ATCC 19977 WhiB7 R76del
Protocol: as §1

[12] = test system: Mycobacterium abscessus ATCC 19977 Eis2 Y255*
Protocol: as §1

CN(C)c1cc(CNCC(C)(C)C)c(O)c2c1C[C@H]1C[C@H]3[C@H](N(C)C)C(O)=C(C(N)=O)C(=O)[C@@]3(O)C(O)=C1C2=O [omadacycline]
Conditions	growth [%]
[1], 0.00625 µg/mL	92.73
[1], 0.0125 µg/mL	105
[1], 0.025 µg/mL	100
[1], 0.05 µg/mL	105
[1], 0.1 µg/mL	93.9
[1], 0.2 µg/mL	97.2
[1], 0.4 µg/mL	101.2
[1], 0.8 µg/mL	-3.27
[1], 1.6 µg/mL	-8.89
[1], 3.2 µg/mL	-7.32
[1], 6.4 µg/mL	-10.5
[1], 12.8 µg/mL	-10.4
[2], 0.00625 µg/mL	92.5
[2], 0.0125 µg/mL	102
[2], 0.025 µg/mL	98.5
[2], 0.05 µg/mL	104
[2], 0.1 µg/mL	93.6
[2], 0.2 µg/mL	98.1
[2], 0.4 µg/mL	104
[2], 0.8 µg/mL	73.5
[2], 1.6 µg/mL	-1.99
[2], 3.2 µg/mL	-7.76
[2], 6.4 µg/mL	-8.51
[2], 12.8 µg/mL	-8.7
[3], 0.00625 µg/mL	92.8
[3], 0.0125 µg/mL	93.9
[3], 0.025 µg/mL	95
[3], 0.05 µg/mL	93.5
[3], 0.1 µg/mL	90.7
[3], 0.2 µg/mL	93.3
[3], 0.4 µg/mL	103
[3], 0.8 µg/mL	75.4
[3], 1.6 µg/mL	-1.85
[3], 3.2 µg/mL	-8.73
[3], 6.4 µg/mL	-9.304
[3], 12.8 µg/mL	-9.59
[4], 0.00625 µg/mL	100.9
[4], 0.0125 µg/mL	108
[4], 0.025 µg/mL	98.8
[4], 0.05 µg/mL	105
[4], 0.1 µg/mL	100
[4], 0.2 µg/mL	104
[4], 0.4 µg/mL	109
[4], 0.8 µg/mL	99.4
[4], 1.6 µg/mL	-1.86
[4], 3.2 µg/mL	-7.27
[4], 6.4 µg/mL	-7.66
[4], 12.8 µg/mL	-7.847
[5], 0.00625 µg/mL	89.4
[5], 0.0125 µg/mL	103
[5], 0.025 µg/mL	87.5
[5], 0.05 µg/mL	89.4
[5], 0.1 µg/mL	87.5
[5], 0.2 µg/mL	91.42
[5], 0.4 µg/mL	92.3
[5], 0.8 µg/mL	6.25
[5], 1.6 µg/mL	-8.16
[5], 3.2 µg/mL	-0.402
[5], 6.4 µg/mL	-11
[5], 12.8 µg/mL	-10.8
[6], 0.00625 µg/mL	92.9
[6], 0.0125 µg/mL	104
[6], 0.025 µg/mL	86.3
[6], 0.05 µg/mL	100
[6], 0.1 µg/mL	100.4
[6], 0.2 µg/mL	102
[6], 0.4 µg/mL	106
[6], 0.8 µg/mL	-2.2
[6], 1.6 µg/mL	-6.56
[6], 3.2 µg/mL	-8.31
[6], 6.4 µg/mL	-8.73
[6], 12.8 µg/mL	-8.23
[7], 0.00625 µg/mL	92.9
[7], 0.0125 µg/mL	97.9
[7], 0.025 µg/mL	94.5
[7], 0.05 µg/mL	98.9
[7], 0.1 µg/mL	92.2
[7], 0.2 µg/mL	92.4
[7], 0.4 µg/mL	94.5
[7], 0.8 µg/mL	77.7
[7], 1.6 µg/mL	0.484
[7], 3.2 µg/mL	-8.2
[7], 6.4 µg/mL	-9.12
[7], 12.8 µg/mL	-9.26
[8], 0.00625 µg/mL	101
[8], 0.0125 µg/mL	98.6
[8], 0.025 µg/mL	96.9
[8], 0.05 µg/mL	98.2
[8], 0.1 µg/mL	96.1
[8], 0.2 µg/mL	98.9
[8], 0.4 µg/mL	102
[8], 0.8 µg/mL	105
[8], 1.6 µg/mL	-1.98
[8], 3.2 µg/mL	-8.2832
[8], 6.4 µg/mL	-8.934
[8], 12.8 µg/mL	-9.13
[9], 0.00625 µg/mL	95.1
[9], 0.0125 µg/mL	109
[9], 0.025 µg/mL	95
[9], 0.05 µg/mL	101
[9], 0.1 µg/mL	99.9
[9], 0.2 µg/mL	102
[9], 0.4 µg/mL	114
[9], 0.8 µg/mL	98
[9], 1.6 µg/mL	-2.64
[9], 3.2 µg/mL	-8.57
[9], 6.4 µg/mL	-9.29
[9], 12.8 µg/mL	-9.45
[10], 0.00625 µg/mL	101.2
[10], 0.0125 µg/mL	103
[10], 0.025 µg/mL	93.9
[10], 0.05 µg/mL	105
[10], 0.1 µg/mL	95
[10], 0.2 µg/mL	100.7
[10], 0.4 µg/mL	101
[10], 0.8 µg/mL	-1.1
[10], 1.6 µg/mL	-6.17
[10], 3.2 µg/mL	-8.44
[10], 6.4 µg/mL	-8.98
[10], 12.8 µg/mL	-8.5
[11], 0.00625 µg/mL	94.2
[11], 0.0125 µg/mL	99.6
[11], 0.025 µg/mL	95.9
[11], 0.05 µg/mL	105
[11], 0.1 µg/mL	96.5
[11], 0.2 µg/mL	98.8
[11], 0.4 µg/mL	104
[11], 0.8 µg/mL	-0.503
[11], 1.6 µg/mL	-6.91
[11], 3.2 µg/mL	-8.61
[11], 6.4 µg/mL	-8.98
[11], 12.8 µg/mL	-8.344
[12], 0.00625 µg/mL	95.8
[12], 0.0125 µg/mL	104
[12], 0.025 µg/mL	85.9
[12], 0.05 µg/mL	101
[12], 0.1 µg/mL	96.1
[12], 0.2 µg/mL	100
[12], 0.4 µg/mL	103
[12], 0.8 µg/mL	94.1
[12], 1.6 µg/mL	-3.7
[12], 3.2 µg/mL	-9.57
[12], 6.4 µg/mL	-10.6
[12], 12.8 µg/mL	-10.3
